Reference: article PMC4336329 (PLoS ONE, 2015)
Hit rate of the full screen: of about 310,000 compounds, about 2,200 (0.71%) showed an effect of 50% or more. The effect is printed as a negative number. The list shows a part of the results. Where a SMILES comes first, the peptide text is derived from it. The star is where a group is joined. Boc = CC(C)(C)OC(=O)*

molecular target: human ether-à-go-go-related gene (hERG) potassium channel (human, UniProt Q12809); experiment: primary screen, population patch clamp on CHO cells stably expressing hERG
Sequence (Q12809 whole entry, looked up): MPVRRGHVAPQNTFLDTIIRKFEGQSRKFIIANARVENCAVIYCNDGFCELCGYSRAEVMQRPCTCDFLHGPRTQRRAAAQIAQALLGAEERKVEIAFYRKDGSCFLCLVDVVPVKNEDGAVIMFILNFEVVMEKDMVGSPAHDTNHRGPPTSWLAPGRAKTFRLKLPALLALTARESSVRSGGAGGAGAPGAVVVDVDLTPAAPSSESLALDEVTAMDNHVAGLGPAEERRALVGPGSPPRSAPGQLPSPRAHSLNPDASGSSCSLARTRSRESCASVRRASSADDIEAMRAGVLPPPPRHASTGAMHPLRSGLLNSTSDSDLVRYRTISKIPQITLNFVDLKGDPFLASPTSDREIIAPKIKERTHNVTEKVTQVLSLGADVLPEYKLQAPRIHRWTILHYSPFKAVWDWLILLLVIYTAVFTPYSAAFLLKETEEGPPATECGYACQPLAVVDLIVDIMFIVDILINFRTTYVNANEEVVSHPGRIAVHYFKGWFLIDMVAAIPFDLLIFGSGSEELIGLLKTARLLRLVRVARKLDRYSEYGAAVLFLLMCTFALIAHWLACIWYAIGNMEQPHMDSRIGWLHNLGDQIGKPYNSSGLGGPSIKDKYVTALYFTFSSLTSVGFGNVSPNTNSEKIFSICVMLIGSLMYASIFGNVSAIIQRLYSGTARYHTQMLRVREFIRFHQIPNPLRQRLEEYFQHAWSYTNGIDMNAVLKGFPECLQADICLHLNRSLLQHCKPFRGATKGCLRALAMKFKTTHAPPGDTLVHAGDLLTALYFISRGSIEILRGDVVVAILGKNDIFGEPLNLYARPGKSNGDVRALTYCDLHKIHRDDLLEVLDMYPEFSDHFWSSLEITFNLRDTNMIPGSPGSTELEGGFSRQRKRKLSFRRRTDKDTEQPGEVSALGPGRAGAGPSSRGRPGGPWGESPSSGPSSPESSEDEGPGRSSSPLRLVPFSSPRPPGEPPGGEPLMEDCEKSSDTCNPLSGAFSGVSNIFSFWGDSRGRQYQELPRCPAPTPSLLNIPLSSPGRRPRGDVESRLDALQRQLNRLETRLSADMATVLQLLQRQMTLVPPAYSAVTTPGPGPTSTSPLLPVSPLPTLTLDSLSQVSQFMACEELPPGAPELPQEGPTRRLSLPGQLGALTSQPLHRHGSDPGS

Compound	hERG current change (%, negative = inhibition) at 1uM [%]
CC(OC(=O)/C=C/c1cccs1)C(=O)NC1CCCCC1C (stereo not shown)	17
O=C(N/N=C/c1cccs1)c1ccc(-n2cccc2)cc1	20.9
COc1ccc(NC(=O)N2c3ccc(OC)cc3C(C)=CC2(C)C)cc1	12.8
CC(=O)c1ccc(N(CC(=O)NCc2ccc3c(c2)OCO3)C(=O)c2csnn2)cc1	-0.552
Cc1cc(C(=O)OCC(=O)Nc2c(Cl)cccc2C(F)(F)F)c(C)o1	15.8
Cc1ncc([N+](=O)[O-])n1S(=O)(=O)c1cc(Br)ccc1Br	13
Cc1nn(CC(=O)Nc2ccc(S(=O)(=O)N(C)C)cc2)c(C)c1[N+](=O)[O-]	-0.141
COc1cccc(NC(=O)CSc2nnnn2C(C)C)c1	7.88
O=C(O)C(=O)O.OC(CNCc1ccc(Cl)cc1)COc1ccccc1 (stereo not shown)	7.68
O=C(NCCCc1ccccc1)c1ccccc1	2.8
CC1(C)C(=O)N(c2ccccc2F)C(=O)c2ccccc21	8.36
Cc1cc(C(=O)CN2C(=O)NC(C)(c3cccc(Br)c3)C2=O)c(C)n1Cc1ccco1 (stereo not shown)	8.81
Cn1cccc1Cc1nnc(SCC(=O)NCC2CCCO2)n1C (stereo not shown)	12.4
CN(Cc1nccs1)C(=O)C1CCC(=O)N(CCc2ccc(Cl)cc2)C1 (stereo not shown)	-49.9
Cc1cc(N)n(-c2ccc(S(=O)(=O)N3CCOCC3)cc2[N+](=O)[O-])n1	-2.54
Cc1ccccc1OCCC(=O)OCC(=O)Nc1c(C)nn(-c2ccccc2)c1C	14.6
Cc1ccc(S(=O)(=O)N(C)CC(=O)OCC(=O)NC(=O)Nc2ccc3c(c2)OCCO3)cc1	17.8
CC(=O)Nc1cccc(N(C)C)c1	4.93
O=C(NC(c1ccccc1)C(Cl)Cl)c1ccccc1 (stereo not shown)	10.2
COc1ccc(OC(=O)/C=C/c2ccc([N+](=O)[O-])cc2)cc1	11.8
COC(=O)c1ccc(/C=C/c2c(-c3ccsc3)sc3ccccc23)cc1	16.7
Cc1ccsc1C(=O)OCC(=O)N1CCOCC1	9.96
O=C(c1ccc2[nH]ccc2c1)N1CCCC(Nc2ccccc2)C1 (stereo not shown)	11.3
CCC(CC)C(=O)Nc1c(C(=O)N2CCN(c3ccccc3)CC2)oc2ccccc12	10.8
O=C1C2C3C=CC(CNS(=O)(=O)c4ccccc4[N+](=O)[O-])(O3)C2C(=O)N1c1ccccc1 (stereo not shown)	8.01
C=CCc1cccc2cc(C(=O)NCc3cccnc3)c(=O)oc12	2.43
C#CCNC(=O)[C@H](Cc1ccc(C(=O)c2ccccc2)cc1)NC(=O)OC(C)(C)C	18.7
COc1ccc(NS(=O)(=O)c2ccc(N3CCCC3)c(N)c2)cc1	18.1

Compound	hERG current change (%, negative = inhibition) at 1uM [%]
O=C(N/N=C/c1ccccc1OC(=O)c1ccc2c(c1)OCO2)c1cccc(F)c1	14.3
COc1ccc(C)cc1NS(=O)(=O)c1ccc(-c2cnc(C3CC3)o2)cc1	-9.89
CC(=O)c1ccc(OCC(=O)NCC(c2ccco2)N2CCCCC2)cc1 (stereo not shown)	4.01
CCc1ccc(NC(=O)Cc2ccc(NC3=NC4CS(=O)(=O)CC4S3)cc2)cc1 (stereo not shown)	8.88
COc1ccc(O)c(/C=C(\C#N)C(=O)Nc2cccnc2)c1	14
O=C(COc1ccc2c3c(c(=O)oc2c1)CCCC3)NCCCN1CCCC1=O	9.4
Nc1nnc(-c2ccc(Cl)c(Cl)c2)s1	8.93
CN(/N=C/c1c[nH]c2ccccc12)c1cnn(-c2ccc(F)c(Cl)c2)c(=O)c1Cl	-0.686
CCOC(=O)N1CCN(C(=O)CS(=O)Cc2nc(-c3cccc(C)c3)oc2C)CC1 (stereo not shown)	11.8
Cc1nn(CCc2nn[nH]n2)c2nc(-c3ccccc3)cc(C(F)(F)F)c12	4.83
O=C(NCc1ccccc1)C1CCCN(S(=O)(=O)c2cccnc2)C1 (stereo not shown)	4.88
COC(=O)C1=C(C)NC(=O)NC1c1ccc(-c2ccc(Cl)cc2)o1 (stereo not shown)	10.1
Cc1c(C(=O)O)sc2nc(CSc3ncc(C(F)(F)F)cc3Cl)[nH]c(=O)c12	10.7
CC(C)(C)n1nc2c(c1NC(=O)c1c(F)cccc1F)CS(=O)(=O)C2	11.5
O=C(Nc1ccc(Br)cc1Cl)Nn1cnnc1	-1.72
Fc1ccc(-c2csc3ncnc(N4CCN(c5ccccc5)CC4)c23)cc1	15.3
O=C(Nc1cccc(S(=O)(=O)NC2=NCCCCC2)c1)c1cccnc1Cl	13
N#Cc1ccc(CN2C(=O)NC3(CCCCCC3)C2=O)cc1	-8.38
CC(C)CC(NC(=O)OC(C)(C)C)C(=O)NC(C(=O)N1CCCC1C(N)=O)C(C)C (stereo not drawn) (Boc-Leu-Val-Pro-NH2; configuration not given here)	-5.09
O=C(CNC(=O)c1cccnc1)N/N=C/c1cc(Br)c(O)c(Br)c1	12.6
CN(C)C(=O)CSc1nc2ccccc2n1CC(=O)N1CCN(c2ccccc2)CC1	9.65
COc1ccc(OCC(=O)N2CCC(n3nccc3NC(=O)C3CC3)CC2)cc1	-1.98
COc1cc(NC(=O)CN2C(=O)NC(c3ccccc3)(c3ccccc3)C2=O)cc(OC)c1	7.32
Cc1ccc(CNC(=O)/C(C#N)=C/c2ccc(C)s2)cc1	8.94
Cc1cc2c(sc3ccccc32)c(C)n1.Cl	7.1
Cl.OC(COc1ccc2c(c1)OCO2)CN1CCN(c2ccc(F)cc2)CC1 (stereo not shown)	-35.3
O=C(CCNC(=O)c1ccccc1Cl)Nc1nc2ccccc2s1	16.9
